According to the RNAGym collection of RNA variant scans (doi:10.1073/pnas.2313332121):
Variants at the background level are over-represented here.

B1: TPR 5TU (parent)
chain: GGAUCUUCUCGAUCUAACAAAAAAGACAAAUCUGCCACAAAGCUUGAGAGCAUCUUCGGAUGCAGAGGCGGCAGCCUUCGGUGGCGCGAUAGCGCCAACGUUCUCAACUAUGACACGCAAAACGCGUGCUCCGUUGAAUGGAGUUUAUCAUG

Variants of: B1
Assay: polymerase ribozyme fitness, log enrichment relative to wild type (log ratio); higher = more active; in vitro selection for triplet polymerase activity
Summary of the method: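 The heterodimeric triplet polymerase ribozyme's subunits were each mutagenized into PCR-built libraries and transcribed. Every library was selected once, in triplicate, by annealing with a biotinylated primer, the partner subunit and triplets, incubating frozen at −7 °C, gel-excising extended constructs, capturing on streptavidin beads and running RT-PCR. Input and output libraries were Illumina-sequenced, with genotypes kept only at ≥10 input reads and ≥1 read per output. Fitness, from inverse-variance-weighted replicate averages, is the base-2 logarithm of genotype enrichment over wild-type enrichment.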

| Variant | polymerase ribozyme fitness (log ratio) |
| --- | --- |
| A17U C54G C96U | -2.08 |
| A17U A64G A66C G84U C116U | ≤ -4.2 |
| A17G U109G G140U | -3.77 |
| A17C U33C G83A G141U | ≤ -4.2 |
| A17U U31C G34C A37C U45A C51U C87G C114G U135G | ≤ -4.2 |
| A17G C93A A106G | -1.94 |
| A17U U77C C93U G100U A120U | ≤ -4.2 |
| A17C C76U C93G U102G C105A | ≤ -4.2 |
| A17U G58C G65A A73C G84U U90C C108G | ≤ -4.2 |
| A17U A37G U53G C95A C99G C103A G128U | ≤ -4.2 |
| A17C U77C G92C | ≤ -4.2 |
| A17G A39C A52G U55A C75U U77A C87A | ≤ -4.2 |
| A17G A49C G58A C85G C87G | ≤ -4.2 |
| A17U A20U G50C | ≤ -4.2 |
| A17G U56A G62C G152A | -3.06 |
| A17U G83C U102G C105A | ≤ -4.2 |
| A17G A20U A37G U53G A98U A106U G126C G136C G143U | ≤ -4.2 |
| A17U A47C C57U A89G G94A A97G C129A | ≤ -4.2 |
| A17U U61G A91C C95A | ≤ -4.2 |
| A17C G86U A106C A107U U135C A138U U148A | ≤ -4.2 |
| A17C C87G C93U C99G | ≤ -4.2 |

| Variant | polymerase ribozyme fitness (log ratio) |
| --- | --- |
| A17G G70C G86C | ≤ -4.2 |
| A17C A122U G141C C149G | ≤ -4.2 |
| A17G C85U A115U C125A U144G A150C | ≤ -4.2 |
| A17U A26C A41C C118A | ≤ -4.2 |
| A17G A30U A52C G81A | ≤ -4.2 |
| A17U C35U G86U U90C A106G C116A | ≤ -4.2 |
| A17U A26C G62A G86U C99U U134C A137U G140A A147U | ≤ -4.2 |
| A17U C32G G50U G59A C114A | ≤ -4.2 |
| A17U A22U A26G G34U C57U G59A C93U | ≤ -4.2 |
| A17G A49C C87G C123G G141A | ≤ -4.2 |
| A17G A22C G128U G133C | ≤ -4.2 |
| A17G A22C U31G C69G A73G C75G C79G G88U A98U | ≤ -4.2 |
| A17G U44A U55A A73U U77A G92A U101G C118U | ≤ -4.2 |
| A17G A21C A24C A26G C27G G71C G83C | ≤ -4.2 |
| A17G C27A C35G C75A G86C A142G | ≤ -4.2 |
| C18A A19C C35A | -2.88 |
| A17U C38G A91C A106U G136C | ≤ -4.2 |
| A17G C32U A49U C51U U55G | ≤ -4.2 |
| A17G C35U A49U G74A A91G A122U A137C G140A | ≤ -4.2 |
| A17G A64G A110U G136U | ≤ -4.2 |
| A17U A24U C57A C63U G65C C76G C93U C105U C123G A137G | ≤ -4.2 |

| Variant | polymerase ribozyme fitness (log ratio) |
| --- | --- |
| A17G C35U G83A | -0.796 |
| A17G C51G U55A C57U G92U C103A C108A | ≤ -4.2 |
| A17G A22G U82C C99A | -2.88 |
| A17C C93U | -1.02 |
| C18A A19C G50U C75U A110U | ≤ -4.2 |
| A17U C27G C43G C54U C63U A121G | ≤ -4.2 |
| A17G C51G G143C | ≤ -4.2 |
| A17U C57U A73U G81U C85G C95G A106U A115C G136A | ≤ -4.2 |
| A17G A28U A41C A52G U77G G86C | ≤ -4.2 |
| A17U G88C C95G C103A | ≤ -4.2 |
| A17U A19C G42U U56C C76A G88A | ≤ -4.2 |
| A17U C51U C79U G88U C116G A119G A142G G143A | ≤ -4.2 |
| A17C G25C A41U C51A G84C G94U A110G U144C U146G | ≤ -4.2 |
| A17G A20U A24U A40C G42C U44A G94A A150G | ≤ -4.2 |
| A17U A30C G81C C105U | ≤ -4.2 |
| A17C C95U A119U A150G | -1.7 |
| A17G G58C U61G G71U G86C U104G G143C | ≤ -4.2 |
| A17U A19U A41U C87U C103G G140A G143C | ≤ -4.2 |
| A17U A49C G50C | ≤ -4.2 |
| A17U A29G A41U U82G A89G U135G G141U | ≤ -4.2 |
| A17C A52G G81A G83A A98U | -0.507 |

| Variant | polymerase ribozyme fitness (log ratio) |
| --- | --- |
| A17C G46A C85A C99G A147U | ≤ -4.2 |
| A17C C95A C103G C108G | ≤ -4.2 |
| A17G U31G C35A A37U | ≤ -4.2 |
| A17U G25U U33G C69U A89C C96U U148G | ≤ -4.2 |
| A17U G46U A73G U77C G94C | ≤ -4.2 |
| A17C C27G G48C U82C A106C G124U | ≤ -4.2 |
| A17U G68U | ≤ -4.2 |
| A17G A23U U55G A66C | ≤ -4.2 |
| A17G C93A | -2.46 |
| A17G C93G | -2.89 |
| A17G U33A A40G G68U G92A | ≤ -4.2 |
| A17G A52U A64U G65A G86C A107C G128A | ≤ -4.2 |
| A17G U31C A49C G50C C75G C93G | ≤ -4.2 |
| A17C C95U | 0.45 |
| A17U C27G U61C G133U A142C | ≤ -4.2 |
| A17U C36A C54U G74C A120U U144A | ≤ -4.2 |
| A17G G50C A137G U144G | ≤ -4.2 |
| A17G C76A C87A C123U U151G | ≤ -4.2 |
| A17G A22U G88U U144G | ≤ -4.2 |
| A17U C93G | ≤ -4.2 |
